Data as given in patent publication US20190374601A1, “METHODS FOR TREATING FUNGAL INFECTIONS” (priority 2017, published 2019).
Values joined by “and” are separate entries in the source; they are usually repeats but may differ in a detail not shown here. Equal entries are not always repeated. This continues a long series; more values of the same kind are listed elsewhere. Starred links: 1 amine or outer side, 2 acyl side, 3 side chain; linkers in the order of their positions; H or OH if unused. Positions of bridges follow the written chain, without caps; N, C: chain ends. Non-standard residues stand in square brackets, D forms with d. Residues, ends and D or L forms follow the SMILES beside them. *: point of attachment. Orn(4R-OH,5R-OCH2CH2NMe3+) = C[N+](C)(C)CCO[C@@H](N[*:3])[C@H](O)C[C@H](N[*:1])C(=O)[*:2]; pTerphenylCO(4''-OnC5H11) = CCCCCOc1ccc(-c2ccc(-c3ccc(C(=O)*)cc3)cc2)cc1; hTyr(3S-OH,4S-OH) = N[C@H](C(=O)O)[C@H](O)[C@@H](O)c1ccc(O)cc1; Pro(3S-OH,4S-Me) = C[C@H]1CN[C@H](C(=O)O)[C@H]1O; Hyp = O=C(O)[C@@H]1C[C@@H](O)CN1

Assay: Tissue concentration of subcutaneously injected CD101 in cynomolgus monkeys
Assay type: in vivo
Details: for CD101 Concentration: individual animals, at necropsy; for Mean Concentration: mean of males and females
Protocol: In this study, the tissue concentration of subcutaneously injected CD101 was evaluated in cynomolgus monkeys.
Dose levels were 30, 60, and 120 mg/kg/dose for Groups 2, 3, and 4, respectively. […] The dose volumes were 1.2, 0.3, 0.6, and 1.2 mL/kg spread evenly over 4, 1, 2, and 4 dose sites for Groups 1-4, respectively, on each day of dosing. The control and 120 mg/kg/dose groups each consisted of 5 males and 5 females, and the 30 and 60 mg/kg/dose groups each consisted of 3 males and 3 females.
The animals were observed twice daily for mortality and moribundity. Clinical examinations were performed once daily for at least 6 consecutive days, including the day of randomization, prior to randomization, prior to dosing, 1-2 hours postdosing, once daily on nondosing days, and once daily during the recovery period. Detailed physical examinations were performed at least weekly during the acclimation period until randomization, on the day of randomization, weekly (±2 days) during the study period, and on the day of the scheduled necropsies. Injection site (IS) observations were performed prior to dosing (dose sites that were utilized on that day of dosing), 1-2 hours postdosing (dose sites that were utilized on that day of dosing), once daily on nondosing days (dose sites that had been previously been utilized), and twice weekly during the recovery period. Individual body weights were recorded weekly (±2 days). Individual body weights were collected at least weekly during the acclimation period until randomization, on the day of randomization, Study Day 0 (prior to dosing), weekly (2±days) during the study period, on the day prior to the day of the scheduled necropsies (nonfasted) and on the day of the scheduled necropsies (fasted). Clinical pathology parameters (hematology, coagulation, serum chemistry, and urinalysis) were analyzed during acclimation prior to randomization (Study Day −15), and on the day of the primary (Study Day 17) and recovery (Study Day 45) necropsies. Blood samples for toxicokinetic evaluation were collected from all animals/sex/group/time point prior to dose administration and at approximately 1, 2, 4, 8, 24, 48, and 72 hours after dose administration on Study Days 0 and 12. Complete necropsies were performed on all animals, and selected organs were weighed at the scheduled necropsies. Selected tissues were examined microscopically from all animals. Fingernail, toenail, nail bed, and abdominal skin samples were collected from all animals at the scheduled necropsies for bioanalytical analysis.

Compound: CCCCCOc1ccc(-c2ccc(-c3ccc(C(=O)N[C@H]4C[C@@H](O)[C@@H](OCC[N+](C)(C)C)NC(=O)[C@@H]5[C@@H](O)[C@@H](C)CN5C(=O)[C@H]([C@@H](C)O)NC(=O)[C@H]([C@H](O)[C@@H](O)c5ccc(O)cc5)NC(=O)[C@@H]5C[C@@H](O)CN5C(=O)[C@H]([C@@H](C)O)NC4=O)cc3)cc2)cc1 [CD101] ({pTerphenylCO(4''-OnC5H11)}-[Orn(4R-OH,5R-OCH2CH2NMe3+)]T[Hyp][hTyr(3S-OH,4S-OH)]T[Pro(3S-OH,4S-Me)]; lactam 1-C)
- CD101 Concentration (Fingernail, 30 mg/kg/dose SC once every 3 days (5 doses), 30 mg/kg): 90.0 µg/g
- Mean Concentration (Fingernail, 30 mg/kg/dose SC): 85.5 µg/g
- CD101 Concentration (Skin, 30 mg/kg/dose SC once every 3 days (5 doses), 30 mg/kg): 40.9 µg/g and 32.4 µg/g and 42.8 µg/g
- Mean Concentration (Skin, 30 mg/kg/dose SC): 40.4 µg/g
- CD101 Concentration (Toenail bed, 30 mg/kg/dose SC once every 3 days (5 doses), 30 mg/kg): 49.3 µg/g
- CD101 Concentration (Toenail bed, 60 mg/kg/dose SC once every 3 days (5 doses), 60 mg/kg): 196 µg/g and 116 µg/g and 182 µg/g and 129 µg/g and 165 µg/g and 149 µg/g
- Mean Concentration (Toenail bed, 60 mg/kg/dose SC): 156 µg/g
- CD101 Concentration (Toenail bed, 120 mg/kg/dose SC once every 3 days (5 doses), 120 mg/kg): 166 µg/g and 337 µg/g and 72.2 µg/g and 54.1 µg/g and 238 µg/g and 136 µg/g and 168 µg/g and 90.6 µg/g and 165 µg/g and 81.6 µg/g
- Mean Concentration (Toenail bed, 120 mg/kg/dose SC): 151 µg/g
